Reference: the supplement of paper PMC10126150
Sequences with one replicate were seen in a single cluster, so their values are uncertain.

Tested on: ATP
Test: switch fluorescence ratio, 500 uM ATP over buffer (Cy3 cluster intensity, sum of 5 cycles each) (fold (ratio)); higher = stronger signal-on switching upon ATP binding; sequences stand for … in TCGTCGGCAGCGTCAGATGTGTATAAGAGACAGTTTTTTTTTTTTTTTTTTTTTTTTT…TC
Settings: aptamer strand: ATP DNA aptamer (quencher-CACCTGGGGGAGTATTGCGGAGGAAGG + anchor), 100 nM annealed; ATP concentration: 500 uM; one replicate
Summary of the method: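 Between each of five buffer/ATP cycles, the flow-cell was stripped with NaOH and re-annealed. Each cycle imaged Cy3-labelled switching-strand clusters, annealed to 100 nM quencher-labelled ATP aptamer on a modified Illumina MiSeq flow-cell, first in selection buffer and then after 15 min with 500 uM ATP at 22 °C. The fluorescence ratio is summed target-cycle over summed buffer-cycle Cy3 intensity per cluster, averaged per switch-domain sequence, with clusters outside 100-1000 RFU excluded.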
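Also: ATP exposure 15 min at 22 °C before imaging.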

## TATTGATATA
  switch fluorescence ratio: 0.995

## GAGTTCTTAC
  switch fluorescence ratio: 1.02

## TAAAACAATC
  switch fluorescence ratio: 1.02

## CCGTCGTTGT
  switch fluorescence ratio: 0.996

## CGGGACTCAG
  switch fluorescence ratio: 0.994

## ACAAACAGC
  switch fluorescence ratio: 1.11

## GAGTACAAGT
  switch fluorescence ratio: 1.01

## ATCTGTTCAA
  switch fluorescence ratio: 1.03

## CTGTCTCAT
  switch fluorescence ratio: 0.984

## TATTCTATGG
  switch fluorescence ratio: 0.978

## ACGGTTGGTC
  switch fluorescence ratio: 0.977

## GCCAAGTTAA
  switch fluorescence ratio: 1

## CGTCGGGGCC
  switch fluorescence ratio: 0.979

## ACTCAGTCGT
  switch fluorescence ratio: 1.04

## AAAACCCCTG
  switch fluorescence ratio: 1.05

## ACGTATTGAA
  switch fluorescence ratio: 1.1

## ATGAGTCTAT
  switch fluorescence ratio: 0.992

## CGCTGGTAGT
  switch fluorescence ratio: 1

## AAAATGCGTC
  switch fluorescence ratio: 0.932

## TTCTTCTGGT
  switch fluorescence ratio: 0.995

## CCAAATACAA
  switch fluorescence ratio: 1.03

## CATCATGCCC
  switch fluorescence ratio: 1.15

## GAGGAGGACC
  switch fluorescence ratio: 1.08

## ATTCGATTGG
  switch fluorescence ratio: 0.998

## GTGCCTGGGC
  switch fluorescence ratio: 1.02

## GGGTAGCATT
  switch fluorescence ratio: 1.02

## TGCCGGTCGT
  switch fluorescence ratio: 1.03

## TTCCTGCCAC
  switch fluorescence ratio: 1.74

## TAAGCGGGAA
  switch fluorescence ratio: 1.02

## TATCTGATGT
  switch fluorescence ratio: 0.998

## TTTGGCCGG
  switch fluorescence ratio: 1.01

## GGTGTCATGT
  switch fluorescence ratio: 0.973

## TAACCGCACA
  switch fluorescence ratio: 2.54

## TGAAGTGATG
  switch fluorescence ratio: 1.04

## GGTCCTATCA
  switch fluorescence ratio: 1.01

## GTTGGGCGCG
  switch fluorescence ratio: 0.961

## CGAGGGCACG
  switch fluorescence ratio: 1.01

## TGATTATATC
  switch fluorescence ratio: 1.04

## GGAGGCGTAC
  switch fluorescence ratio: 1.08

## ACTCATACTT
  switch fluorescence ratio: 1.07

## ATGATTTTT
  switch fluorescence ratio: 1.02

## AAATCATG
  switch fluorescence ratio: 1.03

## ACTCTAGATA
  switch fluorescence ratio: 1.23

## ATCAAGTCGA
  switch fluorescence ratio: 1.03

## CACCAGCTAA
  switch fluorescence ratio: 1.17

## TGTTCTTATG
  switch fluorescence ratio: 0.999

## ATTATGCACG
  switch fluorescence ratio: 0.98

## GCGCCGTGGG
  switch fluorescence ratio: 0.976

## GCTAAGTTAC
  switch fluorescence ratio: 1.27

## TCGGTGCATT
  switch fluorescence ratio: 1.06

## TAACCATACA
  switch fluorescence ratio: 1.14

## ATTTTTGGTA
  switch fluorescence ratio: 1.02

## GTAACATCGG
  switch fluorescence ratio: 1.04

## GCATTTTTCC
  switch fluorescence ratio: 0.996

## GAAGGAAATT
  switch fluorescence ratio: 0.944

## GATTCGGGGC
  switch fluorescence ratio: 0.958

## ATTACTGACC
  switch fluorescence ratio: 1.27

## ATCCTAGCGA
  switch fluorescence ratio: 1.15

## TAGAATATTC
  switch fluorescence ratio: 1.02

## ATTCCACTTT
  switch fluorescence ratio: 1.02

## CTACGGATCT
  switch fluorescence ratio: 1.06

## AAGTGTGTGT
  switch fluorescence ratio: 0.965

## GCCTTCTTCT
  switch fluorescence ratio: 1.01

## ATGTAATTT
  switch fluorescence ratio: 0.993

## ATGTAGGACT
  switch fluorescence ratio: 0.979

## ATCTGTGGCG
  switch fluorescence ratio: 0.948

## TGGCTCGA
  switch fluorescence ratio: 1.03

## CGAACTGAAC
  switch fluorescence ratio: 1.15

## ATTAACCGGG
  switch fluorescence ratio: 1.09

## GACGGCCCTG
  switch fluorescence ratio: 0.946

## GTACGGGGCT
  switch fluorescence ratio: 1.01

## GACCGGGGAT
  switch fluorescence ratio: 0.992

## GTTTCAAGTA
  switch fluorescence ratio: 1.06

## GTCGTATTCA
  switch fluorescence ratio: 1.01

## CGATGTTATT
  switch fluorescence ratio: 1.04

## GGCCGCTATT
  switch fluorescence ratio: 1.31

## CTGGGGGCCA
  switch fluorescence ratio: 1.02

## TTGATGGAGG
  switch fluorescence ratio: 0.977

## CGGGGCTGGG
  switch fluorescence ratio: 0.981

## ATTAACTTCT
  switch fluorescence ratio: 1.01

## AAAAGGACCG
  switch fluorescence ratio: 1.06

## ACTGAGGATT
  switch fluorescence ratio: 1.05

## ATTAAGTCCG
  switch fluorescence ratio: 0.965

## CGGGGTCACG
  switch fluorescence ratio: 0.97

## CTTTAGGAGC
  switch fluorescence ratio: 1.03

## GGCGATAAAA
  switch fluorescence ratio: 1

## TGTGGTCAT
  switch fluorescence ratio: 0.979

## CCTCTATAGA
  switch fluorescence ratio: 1.33

## GCCAATGCCG
  switch fluorescence ratio: 0.946

## ACGTAGTCGG
  switch fluorescence ratio: 1.02

## TATCCTGACG
  switch fluorescence ratio: 1.04

## ATATGTATTT
  switch fluorescence ratio: 1.01

## TGCGCACCAT
  switch fluorescence ratio: 1.03

## TCAATTGGCA
  switch fluorescence ratio: 0.967

## ATCTCGACTG
  switch fluorescence ratio: 1.05

## CTGTCACCTG
  switch fluorescence ratio: 1

## GGGTTATCTT
  switch fluorescence ratio: 1.02

## GGTCCTAATC
  switch fluorescence ratio: 1

## ATTCCCGAGG
  switch fluorescence ratio: 1.01

## ACACCCATCG
  switch fluorescence ratio: 1.17

## TATATTTGCT
  switch fluorescence ratio: 0.963

## GCCCAATCGC
  switch fluorescence ratio: 1.11

## TCAGTGTCGG
  switch fluorescence ratio: 0.988

## TTACCCGGTT
  switch fluorescence ratio: 1.12

## AGAAAGCTGT
  switch fluorescence ratio: 0.953

## TGAGTTCGCC
  switch fluorescence ratio: 1.01

## AAGATATC
  switch fluorescence ratio: 1.04

## AGAGGGTCAA
  switch fluorescence ratio: 1.06

## GTGAGACAGA
  switch fluorescence ratio: 0.994

## TGGATTGAAA
  switch fluorescence ratio: 0.975

## TGGTGAAAGG
  switch fluorescence ratio: 1.01

## AAAGCGTCCT
  switch fluorescence ratio: 1.12

## GGGTTACG
  switch fluorescence ratio: 1.01

## ATTAACTGC
  switch fluorescence ratio: 1.02

## TGCAGGAAAG
  switch fluorescence ratio: 1.03

## ATGGCTGAAC
  switch fluorescence ratio: 1.09

## ATGTAGGATA
  switch fluorescence ratio: 1.01

## AGCTTTTAGT
  switch fluorescence ratio: 0.966

## GTGTCTGACA
  switch fluorescence ratio: 1.01

## CGACTGTCTC
  switch fluorescence ratio: 1.07

## GCTCCACGGG
  switch fluorescence ratio: 1.7

## TCGGGGTAGA
  switch fluorescence ratio: 1.03

## CTACTGTTAT
  switch fluorescence ratio: 1.05

## GTCTTGTAAT
  switch fluorescence ratio: 0.946

## CGATTTCCGC
  switch fluorescence ratio: 1.4

## TAACGCTCTT
  switch fluorescence ratio: 0.972

## GATGTATTGG
  switch fluorescence ratio: 0.972

## AATCGCACTG
  switch fluorescence ratio: 1.08

## CATGGCGCCA
  switch fluorescence ratio: 1.01

## CGCTGCTTGT
  switch fluorescence ratio: 0.997

## AGTATTCAAG
  switch fluorescence ratio: 0.961

## GGGTAGCACT
  switch fluorescence ratio: 0.959

## AGCGAAGTTG
  switch fluorescence ratio: 0.982

## TAGGTGTCTG
  switch fluorescence ratio: 0.957

## CTGGGAATTT
  switch fluorescence ratio: 0.956

## GGCTAGTGTG
  switch fluorescence ratio: 0.988

## CGAAAATTTC
  switch fluorescence ratio: 1.04

## CCTGTCGCCG
  switch fluorescence ratio: 1.01

## AAACTGAAAG
  switch fluorescence ratio: 1.03

## AGTTCAAGGG
  switch fluorescence ratio: 1.06

## AACTGTCGGT
  switch fluorescence ratio: 1.01

## AGCTGGGGAT
  switch fluorescence ratio: 1.01

## TTTCGGCAT
  switch fluorescence ratio: 1.06

## CTCGTTAACA
  switch fluorescence ratio: 1.02

## AGTCCGTGGG
  switch fluorescence ratio: 1.01

## GCTTAGACTT
  switch fluorescence ratio: 0.944

## AGTCACACTT
  switch fluorescence ratio: 1.02

## TCAGGACAGC
  switch fluorescence ratio: 1

## CGGGAGTGTT
  switch fluorescence ratio: 0.977

## GGCAGACCAG
  switch fluorescence ratio: 1.02

## TGCTGGAT
  switch fluorescence ratio: 1.03

## TTTTATTTCC
  switch fluorescence ratio: 1.09

## AATTAGGTG
  switch fluorescence ratio: 1.17

## TAACTACGG
  switch fluorescence ratio: 1.17

## ATTAGCCCTG
  switch fluorescence ratio: 0.972

## GAGCGTTGAT
  switch fluorescence ratio: 1.05

## TCTGAGTTGC
  switch fluorescence ratio: 0.995
